{"source": "the supplement of paper PMC8728848", "experiment_in_all_cases": "glycan array binding signal (z-score within array); higher = stronger binding", "conditions_in_all_cases": "glycan notation: IUPAC condensed, linker removed", "key": {"[1]": {"biological_target": "Neu5Ac(a2-8)Neu5Ac(a2-8)Neu5Ac(a2-8)Neu5Ac(a2-3)[GalNAc(b1-4)]Gal(b1-4)Glc", "method_in_brief": "(§1)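 From the Consortium for Functional Glycomics database, 3228 arrays were curated, keeping only those whose protein sequence was available. Binding is given as a within-array Z-score averaged across arrays sharing a protein sequence and across linkers. Negative Z-scores can be read as non-binding.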"}, "[2]": {"biological_target": "Neu5Ac9Ac(a2-6)Gal(b1-4)GlcNAc", "method_in_brief": "as §1"}, "[3]": {"biological_target": "Neu5Gc(a2-3)Gal(b1-3)GlcNAc", "method_in_brief": "as §1"}, "[4]": {"biological_target": "Neu5Gc(a2-3)Gal(b1-3)[Fuc(a1-4)]GlcNAc", "method_in_brief": "as §1"}, "Neu5Gc(a2-3)Gal(b1-4)Glc": {"biological_target": "Neu5Gc(a2-3)Gal(b1-4)Glc", "method_in_brief": "as §1"}, "[5]": {"biological_target": "Neu5Gc(a2-3)Gal(b1-4)GlcNAc", "method_in_brief": "as §1"}, "[6]": {"biological_target": "Neu5Gc(a2-3)Gal(b1-4)[Fuc(a1-4)]GlcNAc", "method_in_brief": "as §1"}, "[7]": {"biological_target": "Neu5Gc(a2-6)Gal(b1-4)GlcNAc", "method_in_brief": "as §1"}, "Neu5Gc(a2-6)GalNAc": {"biological_target": "Neu5Gc(a2-6)GalNAc", "method_in_brief": "as §1"}}, "note": "Some of the results follow."}
{"binder": "Onconase (Rana pipiens), P22069 (protein) QDWLTFQKKHITNTRDVDCDNIMSTNLFHCKDKNTFIYSRPEPVKAICKGIIASKNVLTTSEFYLSDCNVTSRPCKYKLKKSTNKFCVTCENQAPVHFVGVGSC", "values": [{"measurement": "glycan array binding signal (z-score)", "setting": "[1]", "value": 2.71}, {"measurement": "glycan array binding signal (z-score)", "setting": "[2]", "value": -0.006}, {"measurement": "glycan array binding signal (z-score)", "setting": "[3]", "value": -0.003}, {"measurement": "glycan array binding signal (z-score)", "setting": "[4]", "value": 1.6}, {"measurement": "glycan array binding signal (z-score)", "setting": "Neu5Gc(a2-3)Gal(b1-4)Glc", "value": -0.538}, {"measurement": "glycan array binding signal (z-score)", "setting": "[5]", "value": -0.276}, {"measurement": "glycan array binding signal (z-score)", "setting": "[6]", "value": 0.695}, {"measurement": "glycan array binding signal (z-score)", "setting": "[7]", "value": -2.71}, {"measurement": "glycan array binding signal (z-score)", "setting": "Neu5Gc(a2-6)GalNAc", "value": -2.31}]}
